Reference: the RNAGym collection of RNA variant scans (doi:10.1073/pnas.2313332121)
Variants at the floor of the assay are shown more often than the library holds them.

B1: TPR 5TU (parent)
chain: GGAUCUUCUCGAUCUAACAAAAAAGACAAAUCUGCCACAAAGCUUGAGAGCAUCUUCGGAUGCAGAGGCGGCAGCCUUCGGUGGCGCGAUAGCGCCAACGUUCUCAACUAUGACACGCAAAACGCGUGCUCCGUUGAAUGGAGUUUAUCAUG

Variants of: B1
Experiment: polymerase ribozyme fitness, log enrichment relative to wild type (log ratio); higher = more active; in vitro selection for triplet polymerase activity
Method in brief: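 One round of in vitro selection, in triplicate, was applied to PCR-built, transcribed mutant libraries of each subunit of a heterodimeric triplet polymerase ribozyme. The steps were annealing with a biotinylated primer, partner subunit and triplets, incubation frozen at −7 °C, gel excision of extended constructs, streptavidin-bead capture and RT-PCR. Fitness is the logarithm, base 2, of genotype enrichment over wild-type enrichment from inverse-variance-weighted replicate averages of Illumina-sequenced inputs and outputs, keeping genotypes with ≥10 input reads and ≥1 read per output.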

| Variant | polymerase ribozyme fitness (log ratio) |
| --- | --- |
| A23U U44A G70C C99G A142U | ≤ -4.2 |
| A23U U44A C93U | ≤ -4.2 |
| A23G C35U G42A U56A G67A C85A G94U A113C U148A | ≤ -4.2 |
| A23G C38G C95U C114G | -3.85 |
| A24C A37C A66C C93G C105U A121G G152U | ≤ -4.2 |
| A24U A41G C69A C99G | -2.54 |
| A24G C76G G92A C103A | ≤ -4.2 |
| A24C A37G C87G C95G A138U | ≤ -4.2 |
| A24G C27A A40U A60U A89C | ≤ -4.2 |
| A23G G46C G50A G92A C118U A142U | ≤ -4.2 |
| G25C A39U A73G C85U C149G | ≤ -4.2 |
| A23U A40C U82C A89C G128U | ≤ -4.2 |
| A24G A41G A47G U61C G74A G86A A147C A150U | ≤ -4.2 |
| G25A A29U U33G U53A C95G A113C | ≤ -4.2 |
| A24U G62U C99G | ≤ -4.2 |
| A23U U53G C95U G133A G140U | ≤ -4.2 |
| A24C C32G C51G C54U U82G G84U C93G C108G G143A | ≤ -4.2 |
| A24G C54U G67A G141A A150C | ≤ -4.2 |
| A23U C27U C38G C93U U134A | ≤ -4.2 |
| A24U U44A G48C G83A U101A | ≤ -4.2 |
| A23G G25C U31C C76U G83A C125G | ≤ -4.2 |

| Variant | polymerase ribozyme fitness (log ratio) |
| --- | --- |
| A24G A29G G46U C79U A89C C93G A98C U148C G152U | ≤ -4.2 |
| G25C A64C C96U | ≤ -4.2 |
| A24G A52G U55A C85U A150C | ≤ -4.2 |
| A24G A49C U55C C95U C108U | ≤ -4.2 |
| A23G A47C C93G C105G | ≤ -4.2 |
| A24U G80C C85G A91U C95G U101A | ≤ -4.2 |
| A23G U33G G100C U148C | ≤ -4.2 |
| A24U A73U A119G A121U C132A | -3.66 |
| A24G A26G C85G C87U A106G U135G | ≤ -4.2 |
| A24G U31A C38G U53A C57A U77C G83A A137C | ≤ -4.2 |
| A24U A28U C43U U45G A52G G84A A91C C118U A138C G140C | ≤ -4.2 |
| A23U U55A C85G G124C | ≤ -4.2 |
| A23G U31A G58C G70C C93G A107G | ≤ -4.2 |
| A23U C51G C79A G84U G140A | ≤ -4.2 |
| A23U A26C G46U G84A C114A G152A | ≤ -4.2 |
| G25C A66G A106C | ≤ -4.2 |
| G25C G42A C85A U90C G133C U145C | ≤ -4.2 |
| A24U A41U G86U | -3.62 |
| A24U U45C U101G A106G | 0.694 |
| A24U A60U G83A | -1.22 |
| A24C A73U A110U G152A | ≤ -4.2 |

| Variant | polymerase ribozyme fitness (log ratio) |
| --- | --- |
| A23G C93G | ≤ -4.2 |
| A24C A30G A73U C96A | ≤ -4.2 |
| G25C G86A A122U | ≤ -4.2 |
| A24C G86C A147C | ≤ -4.2 |
| A23U C35G A73U G81A U109G | ≤ -4.2 |
| A24U A29U A66G C76U C85G C103U | ≤ -4.2 |
| A24U U61A | -1.72 |
| A23U C27G A40G A47U G67A G83U G84A | ≤ -4.2 |
| A23U G42A G68C G92A U102G | ≤ -4.2 |
| A24U U44A G48U G59U C87A C103G | ≤ -4.2 |
| A23U A26U A98G C105G C108U | ≤ -4.2 |
| A24G C27G A41G C43U G128U U139A A142G | ≤ -4.2 |
| A23U A24C C27G G58A G86U C114U C123A C149A | ≤ -4.2 |
| A23U G50C U139G | ≤ -4.2 |
| A24U G46A U55A C72G G83A C93G A120U G143A | ≤ -4.2 |
| G25C G42C G71C | ≤ -4.2 |
| A24C C79U G83U C131A | ≤ -4.2 |
| G25A A26G G58C U61G | ≤ -4.2 |
| A24U G58C G88A C93U A121G | ≤ -4.2 |
| A24G C43A A73G G92C C93U A121G G128U U135A G136U A142C | ≤ -4.2 |
| A23G U77C G92U C99A G133U G152C | ≤ -4.2 |

| Variant | polymerase ribozyme fitness (log ratio) |
| --- | --- |
| G25C A97G | -2.53 |
| A23U A24G U53A C76G C93U | ≤ -4.2 |
| A24C G84A | ≤ -4.2 |
| A23U G62A C75U G94A C116G | ≤ -4.2 |
| A24U U55A | -0.466 |
| A24C G74C G80A C87U C93A G112A U127A A138C | ≤ -4.2 |
| A24U U82G G83C | -1.55 |
| A23G A91U G140C | ≤ -4.2 |
| A23U G67C G68U U82C U90A C95U G112A G124A U146G | ≤ -4.2 |
| A24G C99U A115G G141C | ≤ -4.2 |
| A24C A49G G67U G83C A106U G126U C132U | ≤ -4.2 |
| A24G U55G | -3.78 |
| A24U A26C C27G C36G G81A A98G G136U U139G A142C | ≤ -4.2 |
| A23U G42A C43G A60C G68A G74C C105U G112U A113U C118U U139G | ≤ -4.2 |
| A24U U44A A60C C79U | ≤ -4.2 |
| A24C C27U A91U | ≤ -4.2 |
| G25C C54A C105U | -3.21 |
| A24C G84A U109A | ≤ -4.2 |
| A24C G25U A29G C105G | ≤ -4.2 |
| G25A C54U C96U A150U | -0.00287 |
| A24U C35A C85U C132A | ≤ -4.2 |
